Reference: patent US20050089932A1, “Novel proteins with targeted binding” (Avidia Research Institute, priority 2001, published 2005)

Experiments:
[1] = biological target: T1, human IgE (Homo sapiens, UniProt P01854); assay: Biacore affinity measurements on immobilized human IgE; format: binding; conditions: IgE on CM5 chip
[2] = biological target: T1, human IgE; assay: ELISA rank of IgE dimer clones displayed on phage; format: binding; conditions: thirty-two clones ranked
[3] = tested on: human PBMC; assay: PBMC assay on human cells; format: cell-based
[4] = tested on: monkey PBMC; assay: PBMC assay on monkey cells; format: cell-based, cynomolgus monkeys

T1 sequence (P01854 1-427 limits assumed): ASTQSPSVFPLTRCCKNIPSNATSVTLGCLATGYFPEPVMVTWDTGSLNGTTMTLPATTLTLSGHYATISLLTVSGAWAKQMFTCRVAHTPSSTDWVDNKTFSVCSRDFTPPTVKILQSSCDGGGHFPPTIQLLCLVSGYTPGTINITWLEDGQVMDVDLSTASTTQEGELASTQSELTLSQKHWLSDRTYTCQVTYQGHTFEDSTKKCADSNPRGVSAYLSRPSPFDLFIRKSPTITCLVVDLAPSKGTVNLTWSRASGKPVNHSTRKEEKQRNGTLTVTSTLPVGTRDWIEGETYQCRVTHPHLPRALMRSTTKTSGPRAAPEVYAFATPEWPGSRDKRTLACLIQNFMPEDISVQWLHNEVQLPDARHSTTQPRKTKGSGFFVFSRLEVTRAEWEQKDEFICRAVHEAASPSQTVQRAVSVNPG

ka [1] | kd [1] | Molecule | other results
1.7 × 10^4 | 2.6 × 10^−3 | IgE-1.23.23: IgE-binding multimer built from the heterodimer clones (protein) CPAGQFRCENGRCLPPPWRCDGVNDCEDNSDEAGCGDSHILPFSTPGPSTCPANEFQCRNSSTCIPRRWLCDGDDDCGDGSDETGCSAPASEPPGSLCPAGQFRCENGRCLPPPWRCDGVNDCEDNSDEAGCGDSHILPFSTPGPSTCPANEFQCRNSSTCIPRRWLCDGDDDCGDGSDETGCSAPASEPPGSL | –
– | – | IgE-1.1: heterodimer of IgE-1 and a novel domain, with a C-terminal domain (protein, IgE-binding walked dimer 1, selected dimer IgE-1.1, heterodimer of IgE-1 and a novel domain, with a C-terminal domain) CPANEFQCRNSSTCIPRRWLCDGDDDCGDGSDETGCSAPASEPPGSLCQPDQFRCSSGRCLSREWLCDGEDDCEDDSDETDCPTRTSLQ | relative affinity by ELISA binding rank [2]: high affinity
– | – | CD28 7: CD28 dimer, sequence >CD28-A7 (protein) CGPGRFQCESGQCIPATWVCDGENDCVDDSDEKSCATTAPTCGSGQFRCSNGNCLPLRLGCDGVDDCGDSSDEPLDPCAATVRT | inhibition [3]: inhibition = 82%; inhibition [4]: inhibition = 54%
5.2 × 10^4 | 3.7 × 10^−3 | IgE-1.23x1: IgE-binding multimer built from the heterodimer clones (protein) CPAGQFRCENGRCLPPPWRCDGVNDCEDNSDEAGCGDSHILPFSTPGPSTCPANEFQCRNSSTCIPRRWLCDGDDDCGDGSDETGCSAPASEPPGSLCQPDQFRCSSGRCLSREWLCDGEDDCEDDSDETDCPTRT | Kd [1]: 71 nM
